PubChem BioAssay AID485281 (National Center for Advancing Translational Sciences (NCATS), 2010)
About 260 (0.074%) of roughly 350,000 compounds were called active. Inconclusive results, whose numbers are uncertain, are shown with a selection of clear calls. The call rests on the fitted dose curve; in most records, active means well fitted inhibition curve with a large enough effect; inconclusive means small, poorly fitted or top-dose-only effect; inactive means no such curve, though single readings can be large or run the other way. Potencies of inconclusive entries are doubtful fits and often do not repeat.

Biological target: Ferritin light chain (Equus caballus) (UniProt P02791)
Sequence of UniProt P02791 (P02791 whole entry, looked up): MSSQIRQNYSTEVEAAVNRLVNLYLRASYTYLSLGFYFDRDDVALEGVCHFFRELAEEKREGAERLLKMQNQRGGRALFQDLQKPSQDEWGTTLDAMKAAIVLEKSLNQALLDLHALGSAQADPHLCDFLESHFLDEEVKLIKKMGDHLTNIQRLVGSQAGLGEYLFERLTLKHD
Experiment: qHTS Assay for Identification of Novel General Anesthetics; further: nearly all actives have a fitted effect of over 20% in size
Conditions: apoferritin/1-aminoanthracene competitive binding, fluorescence; activity change, negative = displacement: at 77.5 µM (top of the series)
Summary of the method: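 In PBS, apoferritin at 10 uM is loaded with 1-AMA from a 50% saturated solution. After 10 min of compound exposure at ambient temperature, reduced 535 nm fluorescence indicates probe displacement.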
On the % scale 0 is the no-effect control and ±100 the full control effect; potency means the concentration at half of the fitted maximal effect; tags describe the fitted curve by direction and shape.

Potency, inactive:
COc1ccc(S(=O)(=O)N(CC(=O)NCc2ccccc2)c2ccc(C)cc2)cc1OC, CC(=O)c1ccc(NC(=O)c2cnn3ccccc23)cc1, CCCn1c2c(c(O)c(C(=O)NC)c1=O)CCCC2, CCOC(=O)C1CCN(c2nc(-c3ccccc3)nc3c2oc2ccccc23)CC1, Fc1ccc2[nH]c(-c3cccs3)cc2c1, O=C(Nc1cccc(C(F)(F)F)c1)c1cc2nc(-c3ccc4c(c3)OCO4)cc(C(F)(F)F)n2n1, Cc1ccc(Cn2cc(C(=O)c3ccc4c(c3)OCO4)c(=O)c3cc(C)ccc32)cc1, Cc1cc(C)nc(/N=C(\N)Nc2ccc(C(C)C)cc2)n1, Cc1cc(/C=N/NC(N)=S)c(C)n1-c1ccc(Br)cc1, CCn1cnc2c(=O)oc3ccc(S(=O)(=O)Nc4ccc(OC)cc4)cc3c21, N#Cc1c(N2CCN(C(=O)c3ccccc3Cl)CC2)nc(-c2ccccc2)c2c1CCCC2, Cc1nc2nc(-c3ccco3)[nH]n2c(=O)c1Cc1ccccc1, CCCCc1ccc(NC(=S)Nc2cccnc2)cc1, COc1ccc(-c2nc(C)c(CCNC(=O)c3cccs3)s2)cc1OC, CCOC(=O)c1cc(-c2cccs2)nc2c1c(C)nn2-c1ccccn1, COc1ccc2nc(N3CCCCC3)c(C#N)cc2c1

Potency, inconclusive:
Oc1ccc(C23CC4CC(CC(C4)C2)C3)cc1O 39.8 µM [inhibitor, partial curve], COCCN(C(=O)CCc1ccc(OC)cc1)c1nnc(-c2ccncc2)s1 39.8 µM [inhibitor, partial curve], O=C(COC(=O)c1n[nH]c2ccccc12)NC(=O)NC1CCCC1 31.6 µM [inhibitor, partial curve], CCOC(=O)c1c(C)[nH]c(C)c1S(=O)(=O)NCC(=O)N1CCN(c2cccc(C)c2)C(C)C1 (stereo not drawn) 50.1 µM [inhibitor, single point], O=C(CCC(=O)c1cccs1)OCc1nc2ccccc2s1 20 µM [inhibitor, partial curve], Cc1nc(NC(=O)COc2ccccc2)sc1C(=O)Nc1cccc(Cl)c1 7.94 µM [inhibitor, full curve, poor fit], O=C(CCN1CCc2ccccc2C1)Nc1ccccc1 28.2 µM [inhibitor, single point], CCOc1ccccc1NC(=O)c1ccc(S(=O)(=O)N(C)C)cc1 35.5 µM [inhibitor, partial curve, poor fit], CO/N=C/c1ccc(N2CCN(C(=O)c3ccc(Cl)cc3Cl)CC2)c([N+](=O)[O-])c1 31.6 µM [inhibitor, partial curve], COc1ccc(OCc2cc(C(=O)NCCCc3ccccc3)no2)c(Cl)c1 15.8 µM [inhibitor, single point], O=c1[nH]c2ccc(Br)cc2c(-c2ccccc2)c1CN1CCOCC1 28.2 µM [inhibitor, partial curve], O=C(Nc1ccc(-c2cn3ccsc3n2)cc1)C1CCCC1 14.1 µM [inhibitor, partial curve], CCN(CC)S(=O)(=O)c1cccc(-c2n[nH]c(=S)n2/N=C/c2ccc(C(=O)OC)cc2)c1 50.1 µM [inhibitor, single point], COc1cccc(NC(=O)C2C3C=CC(C3)C2C(=O)O)c1 (stereo not drawn) 22.4 µM [inhibitor, partial curve], Cc1ccc(NC(=O)C2CCCN2S(=O)(=O)c2cccc3nsnc23)cc1Cl (stereo not drawn) 15.8 µM [inhibitor, partial curve], CC(=O)c1sc(=S)n(-c2ccc(Cl)cc2)c1C 31.6 µM [inhibitor, single point], Cc1cnc(NC(=O)c2cccc(S(=O)(=O)N3CC(C)OC(C)C3)c2)s1 (stereo not drawn) 28.2 µM [inhibitor, partial curve], CCN(CC)CCCNC(=O)c1ccc2c(c1)NC(=O)C(CS(=O)(=O)Cc1cccc(Br)c1)N2 (stereo not drawn) 25.1 µM [inhibitor, partial curve], Cc1ccc(NS(=O)(=O)c2cc(C(=O)NCc3ccccn3)ccc2Cl)cc1 25.1 µM [inhibitor, partial curve], O=C(c1ccccc1)N(Cc1ccc2c(c1)OCO2)Cc1nc2ccccc2c(=O)[nH]1 31.6 µM [inhibitor, partial curve], Cc1ccc(OCC(=O)N2CCCCCCC2)cc1C 20 µM [inhibitor, partial curve], Cc1ccc(NC(=O)CN2C(=O)NC(C)(CCc3ccccc3)C2=O)cc1 (stereo not drawn) 39.8 µM [inhibitor, partial curve], CCN(c1ccccc1)S(=O)(=O)c1ccc(-c2cc(C)no2)s1 7.94 µM [inhibitor, full curve], CCCCc1ccc(NC(=S)NCCCN2CCOCC2)cc1 28.2 µM [inhibitor, partial curve], CCC(C)(C)c1ccc(OCCN2C(=O)NC(C)(C)C2=O)cc1 44.7 µM [inhibitor, partial curve], COc1cc(/C=N\NC(=O)CC(=O)NCCc2ccccc2)ccc1O 35.5 µM [inhibitor, partial curve], CCOC(=O)c1c(NC(=O)CSc2nnc(N)s2)sc(C)c1-c1ccc(C)cc1 56.2 µM [inhibitor, single point], CCN(CC)c1ccc(C(=O)OCC(=O)Nc2sccc2C#N)cc1 7.08 µM [inhibitor, partial curve], COc1ccc(C)cc1NC(=O)C1CCN(S(=O)(=O)c2ccc3c(c2)C(C)(C)C(=O)N3C)CC1 44.7 µM [inhibitor, single point], Nn1c(Cc2cccc3ccccc23)nnc1SCc1c(F)cccc1Cl 50.1 µM [inhibitor, single point], Cc1ccc(OCCCC(=O)Nc2ccc3c(c2)OCO3)cc1 25.1 µM [inhibitor, partial curve], CN1CCN(C(=S)SCC(=O)N2CCCc3ccccc32)CC1 25.1 µM [inhibitor, partial curve], N#Cc1cc(N)ccc1Sc1ccc(Cl)cc1 31.6 µM [inhibitor, partial curve], O=C1C2C3C=CC(C3)C2C(=O)N1CCc1ccccc1 (stereo not drawn) 44.7 µM [inhibitor, partial curve], CCc1ccccc1NC(=O)c1nnn(Cc2ccc(Cl)cc2)c1N 5.62 µM [inhibitor, full curve], CCCNC(=O)c1ccccc1NC(=O)c1ccc2c(c1)NC(=O)C(C)S2 (stereo not drawn) 15.8 µM [inhibitor, partial curve], CSc1ccccc1OCc1cc(C(=O)N[C@H]2CCCCNC2=O)no1 28.2 µM [inhibitor, partial curve], N#Cc1ccc2c(c1)C[C@]1(CCCCN3C(=O)c4ccccc4C3=O)Oc3c(c(=O)oc4ccc(F)cc34)C2O1 2.24 µM [inhibitor, partial curve], O=C1CC(N2CCCc3ccccc32)C(=O)N1c1ccccc1Cl (stereo not drawn) 50.1 µM [inhibitor, single point], Cc1cc(C)n(C(=O)Cn2nc(C)c(Cl)c2C)n1 15.8 µM [inhibitor, partial curve], CSc1ccccc1NS(=O)(=O)c1ccccc1 35.5 µM [inhibitor, partial curve], CCCCCCCCC(=O)N/N=C/c1cccc(Br)c1 10 µM [inhibitor, partial curve], Cc1cc(C)nc(SC/C=C/c2ccccc2)n1 35.5 µM [inhibitor, single point], Cc1ccc(-c2nnn(CC(=O)N(Cc3cccs3)C(C(=O)NC(C)(C)C)c3ccco3)n2)o1 (stereo not drawn) 12.6 µM [inhibitor, partial curve], N/C(=N\OC(=O)c1ccccc1)c1ccn[nH]1 31.6 µM [inhibitor, single point], Cc1nn(Cc2ccccc2)c(C)c1NC(=O)c1noc2c1CCc1ccccc1-2 3.98 µM [inhibitor, full curve, poor fit], COc1ccccc1/C=C1\C(=O)Nc2ccccc21 31.6 µM [inhibitor, partial curve], Cc1ccc(C2=NN(CC(=O)NCc3ccccn3)C(=O)CC2)cc1 35.5 µM [inhibitor, single point], COC(=O)Nc1ccc(SCC(=O)c2cccc([N+](=O)[O-])c2)cc1 25.1 µM [inhibitor, partial curve], Cc1cc(C(=O)N/N=C2\CC(=O)CC(C)(C)C2)c(C)n1-c1ccccc1 25.1 µM [inhibitor, partial curve], COc1ccccc1-c1cnnc(N/N=C/c2ccc(-c3cccc(Br)c3)o2)n1 0.794 µM [inhibitor, partial curve, poor fit]

Activity change, negative = displacement, inactive:
CC#CCOCC/C=C1/c2ccccc2C(OC)C1C (stereo not drawn) -6.6% [at 15.3 µM]
